Reference: PubChem BioAssay AID360 (National Center for Advancing Translational Sciences (NCATS), 2006)
The whole screen tested about 48,000 compounds, of which about 550 (1.1%) were called active. Not shown: some 4% with an inconclusive outcome. Rule as the data show it: active = potency below about 15 µM; inconclusive = mostly about 16 µM to 33 µM; inactive = weaker than that. The list shows a part of the results.

molecular target: Lysosomal acid glucosylceramidase (Homo sapiens) (UniProt P04062); assay: Glucocerebrosidase; settings: purified enzyme, resorufin glucoside fluorescence (screen aimed at inhibitors), 20 min;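 also: the screen sought inhibitors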
UniProt P04062, sequence (P04062 whole entry, looked up): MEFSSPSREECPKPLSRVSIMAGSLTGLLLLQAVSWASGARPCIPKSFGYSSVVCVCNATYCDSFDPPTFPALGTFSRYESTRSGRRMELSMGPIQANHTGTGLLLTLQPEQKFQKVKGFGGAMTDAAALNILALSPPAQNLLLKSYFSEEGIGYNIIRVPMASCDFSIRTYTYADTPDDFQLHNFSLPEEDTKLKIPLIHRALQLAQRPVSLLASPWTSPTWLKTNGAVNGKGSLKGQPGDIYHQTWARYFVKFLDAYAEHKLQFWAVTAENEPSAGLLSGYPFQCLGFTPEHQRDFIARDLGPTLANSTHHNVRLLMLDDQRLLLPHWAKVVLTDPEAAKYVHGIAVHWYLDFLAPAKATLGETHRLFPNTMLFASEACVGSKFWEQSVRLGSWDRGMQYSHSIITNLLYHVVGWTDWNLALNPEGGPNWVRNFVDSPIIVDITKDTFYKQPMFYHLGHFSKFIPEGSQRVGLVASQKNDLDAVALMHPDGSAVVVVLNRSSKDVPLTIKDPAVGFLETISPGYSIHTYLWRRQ
How it was run: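 Wild-type enzyme at 0.2 nM final in 50mM citric acid/KH2PO4, 10mM sodium taurocholate, 0.01% tween-20, pH 5.9, with resorufin beta-D-glucopyranoside at 30 uM final. Compounds titrated, 20 min at RT, red fluorescence read; AC50 from titration.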
Potency is read from the fitted curve at half-maximal effect.

Potency, inactive:
CCCCOC(=O)C1=C(C)NC2=C(C(=O)CCC2)C1c1cc(OC)ccc1OC (stereo not drawn) > 76.9 µM
COC(=O)C1CCN(C(=O)Cc2ccc(OC)c(OC)c2)CC1 > 76.9 µM
COc1cccc(/C=C/c2ccncc2)c1OC > 76.9 µM
O=C(O)C1CCCN1c1ncccn1 (stereo not drawn) > 76.9 µM
C=CCn1c(SCC(=O)NC(=O)NCC(C)C)nnc1C1CCCCC1 > 76.9 µM
COc1cccc(C2CC(c3c(F)cccc3Cl)n3nc(N)nc3N2)c1 (stereo not drawn) > 76.9 µM
O=C(CNS(=O)(=O)c1ccc(F)cc1)N1CCN(c2ccc(F)cc2)CC1 > 76.9 µM
Cc1cc(C)n(-c2cccc(Cl)c2)c(=O)c1C#N > 76.9 µM
CC(C)Cn1c(N)c(C(=O)NCC2CCCO2)c2nc3ccccc3nc21 (stereo not drawn) > 76.9 µM
O=C1C2CCC(C(O)C2)N1Cc1ccccc1 (stereo not drawn) > 76.9 µM
O=c1cc(-c2ccccc2)nc2nc(CCc3ccccc3)[nH]n12 > 76.9 µM
CCc1nnc(NC(=O)CSc2nnc(-c3ccccc3OC)n2-c2ccccc2)s1 > 76.9 µM
COc1cccc(NC(=O)CN(C)S(=O)(=O)c2ccc(C)cc2)c1 > 76.9 µM
Cn1c(CN2CCC(C(N)=O)CC2)c(C#N)c2ccccc21 > 76.9 µM
COc1ccc2[nH]cc(C(=O)CN3CCN(C(=O)c4ccco4)CC3)c2c1 > 76.9 µM
COC(=O)C1CCN(C(=O)CN2C(=O)NC(CCc3ccccc3)C2=O)CC1 (stereo not drawn) > 76.9 µM
COc1ccccc1N1CCN(S(=O)(=O)c2ccccc2F)CC1 > 76.9 µM
O=C(Nc1ccccc1OC(F)F)c1ccc(Br)o1 > 76.9 µM
COc1ccc2nc(NC(=O)C3CCCN(S(=O)(=O)c4cccs4)C3)sc2c1 (stereo not drawn) > 76.9 µM
CC(C)(C)n1ncc2c(=O)n(CC(=O)OCc3ccccc3)cnc21 > 76.9 µM
CCOC(=O)C1CCN(C(=O)C2CCN(S(=O)(=O)CC)CC2)CC1 > 76.9 µM
COc1cccc(CN(Cc2cccnc2)S(=O)(=O)c2ccc(-n3cnnn3)c(C)c2)c1OC > 76.9 µM
Nc1nc(-c2ccco2)nc(N2CCCCC2)n1 > 76.9 µM
CCOC(=O)N1CCN(C(=O)CSc2nnc(Cc3cccn3C)n2CCc2ccccc2)CC1 > 76.9 µM
CCOC(=O)N1CCN(C(=O)C(NC(=O)C2CCC(C)CC2)C(C)C)CC1 (stereo not drawn) > 76.9 µM
Cn1c(=O)c2c(nc(Br)n2CCSc2nnnn2-c2ccccc2)n(C)c1=O > 76.9 µM
CCn1nc(C)c(NC(=O)CCCSc2nc(-c3ccco3)cc(C(F)(F)F)n2)c1C > 76.9 µM
CC(C)OCC(O)CN (stereo not drawn) > 76.9 µM
O=C1CC(SCc2nc3ccccc3[nH]2)C(=O)N1c1ccc(F)cc1 (stereo not drawn) > 76.9 µM
CC(C)(C)n1nnnc1C(c1cc2cc3c(cc2[nH]c1=O)OCO3)N1CCN(c2ccccc2)CC1 (stereo not drawn) > 76.9 µM
Cn1c(=O)c2c(nc(N3CCCCC3)n2CCNC2=NCCC2)n(C)c1=O > 76.9 µM
Cc1cc(C)cc(OCc2nnc(SCC(=O)Nc3ccccc3)o2)c1 > 76.9 µM
COC(=O)C1=C(N)Oc2cc(C)[nH]c(=O)c2C1c1cc(OC)c(OC)c(OC)c1 (stereo not drawn) > 76.9 µM
COc1ccccc1NS(=O)(=O)c1ccccc1C#N > 76.9 µM
CCOc1ccc2ccccc2c1/C=N/n1cncn1 > 76.9 µM
Cc1cc(C(=O)N2CCN(c3ccccc3)CC2)no1 > 76.9 µM
NC(=O)c1ccccc1N=Cc1ccccn1 > 76.9 µM
CN(CC(=O)NC(=O)NCc1ccco1)Cc1nc2ccccc2c(=O)[nH]1 > 76.9 µM
CCCCOc1ccc(Cl)cc1CSc1nnc(C)n1N > 76.9 µM
CCCCn1c2c(c(=O)n(C)c1=O)C(c1ccc(OC)cc1)N1CCCCCC1=N2 (stereo not drawn) > 76.9 µM
COc1ccc(-c2csc(NC(C)=O)n2)cc1OC > 76.9 µM
COC(=O)c1cc(=O)nc2sccn12 > 76.9 µM
CC[C@H](C)[C@H](NS(=O)(=O)c1ccc(C)cc1)C(=O)N1CCC(C(=O)N[C@@H](C)C(=O)O)CC1 > 76.9 µM
Cn1c(CCCOc2ccc(Cl)cc2Cl)nnc1SCC(=O)Nc1nccs1 > 76.9 µM
Cc1ccc(O)c(NC(=O)c2ccco2)c1 > 76.9 µM
CCOc1ccc2cc(C#N)c(SCC(=O)N3CCC(C)CC3)nc2c1 > 76.9 µM
COc1ccc(CCNC2CCN(C)CC2)cc1OC > 76.9 µM
O=c1c2[nH]c3ccccc3c2ncn1CCN1CCOCC1 > 76.9 µM
Cc1cc2cc(OCC(=O)O)ccc2n1C > 76.9 µM
CC(=O)NC1CC2CCCC(C1)N2S(=O)(=O)c1ccccc1 (stereo not drawn) > 76.9 µM
CN1CCN(C(=O)CN(c2cccc(Cl)c2)S(=O)(=O)c2ccccc2)CC1 > 76.9 µM
COC(=O)CSc1nc(N2CCOCC2)c2c(c1C#N)CC(C)(C)N(C)C2 > 76.9 µM
CCOC(=O)c1c(C)c(C(=O)NCCOC)c(C)n1CC
O=C(Cn1c(CN2CCCCC2)nc2ccccc2c1=O)NCc1ccco1 > 76.9 µM
COc1ccc(OC)c(C2C(C(C)=O)=C(O)C(=O)N2Cc2cccnc2)c1 (stereo not drawn) > 76.9 µM
Cc1cc(OC(=O)c2ccc(S(=O)(=O)N(C)C)cc2)cc(=O)o1 > 76.9 µM
CCCCn1c(SCC(=O)c2ccc(OC)cc2OC)nc2cc(S(N)(=O)=O)ccc21 > 76.9 µM
Cc1cc(C)nc(-n2nc(C)c(C3(O)C(=O)Nc4ccccc43)c2N)n1 (stereo not drawn) > 76.9 µM
